# Hit rate of the full screen: of about 360,000 compounds, about 25,000 (6.9%) were called active. The shares of active, inactive and inconclusive entries below differ from those in the screen. Calls come from the whole dose curve; as a rule, active = well fitted inhibition curve with a large enough effect; inconclusive = small, poorly fitted or top-dose-only effect; inactive = flat fitted curve, though single readings scatter. Potencies of inconclusive entries are doubtful fits and often do not repeat.
# Molecular target: Luciferin 4-monooxygenase (Photinus pyralis) (UniProt P08659)
# UniProt P08659, sequence (P08659 whole entry, looked up): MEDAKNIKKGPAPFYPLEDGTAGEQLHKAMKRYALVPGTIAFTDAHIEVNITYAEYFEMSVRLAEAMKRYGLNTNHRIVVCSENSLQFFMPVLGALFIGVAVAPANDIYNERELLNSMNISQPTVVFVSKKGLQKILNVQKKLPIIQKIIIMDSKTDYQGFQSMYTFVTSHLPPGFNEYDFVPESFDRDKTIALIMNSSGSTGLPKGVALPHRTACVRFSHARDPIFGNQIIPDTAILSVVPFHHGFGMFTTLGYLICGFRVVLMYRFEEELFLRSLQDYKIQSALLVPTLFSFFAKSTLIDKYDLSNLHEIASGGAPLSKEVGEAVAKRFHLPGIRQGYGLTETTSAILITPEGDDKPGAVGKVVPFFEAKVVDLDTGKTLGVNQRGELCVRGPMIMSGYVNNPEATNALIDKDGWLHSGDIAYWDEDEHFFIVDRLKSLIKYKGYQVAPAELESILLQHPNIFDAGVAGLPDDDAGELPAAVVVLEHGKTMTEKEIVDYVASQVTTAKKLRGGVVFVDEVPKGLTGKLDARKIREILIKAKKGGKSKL
# Test: qHTS profiling assay for firefly luciferase inhibitor/activator using purifed enzyme and Km concentrations of substrates (counterscreen for miR-21 project); note: nearly all actives have a fitted effect of over 55% in size
# Conditions: purified FLuc, luminescence inhibition; series mostly up to 57.5 µM
# In short: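 Purified P. pyralis luciferase (10nM final) with 10uM D-luciferin and 10uM ATP (Km levels) in 50mM Tris acetate pH 7.5, 10mM Mg acetate, 0.01% Tween-20, 0.05% BSA; qHTS 6-point titration, ~60 µM downward; luminescence read.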
# Potency is the fitted concentration of half-maximal effect; tags give direction and shape of the fitted curve.
row,Compound,Potency
1,CN(C)c1ccc(-c2nnc(SCC3CCCO3)n2C)cc1 (stereo not given),"inconclusive: 23.9 µM [inhibitor, partial curve]"
2,O=C1C(Cl)=C(N2CCCC2)C(=O)N1c1ccc(F)cc1,"inconclusive: 37.9 µM [inhibitor, partial curve, poor fit]"
3,Cc1noc(C)c1C(=O)NNc1ccc(C(C)C)cc1,"inconclusive: 26.9 µM [inhibitor, partial curve]"
4,Cc1cccc(C)c1NC(=O)CSc1nnc(-c2ccco2)c(-c2ccco2)n1,"inconclusive: 13.5 µM [inhibitor, partial curve]"
5,COC(=O)c1sccc1NC(=O)Nc1ccc(F)cc1F,active: 21.3 µM
6,O=C(Nc1nc2ccccc2s1)c1cc(-c2ccco2)nc2ccccc12,"inconclusive: 12 µM [inhibitor, partial curve]"
7,COc1ccc(Nc2nc(N)nc(CSc3nnc(N)s3)n2)cc1,"inconclusive: 23.9 µM [inhibitor, partial curve]"
8,O=C(COC(=O)C1(c2ccc(F)cc2)CCCC1)Nc1ncc(C(F)(F)F)cc1Cl,inactive
9,CCN(CC)CCCNC(=O)CCC(=O)Nc1ccc2nc(N3CCCCC3)cc(C)c2c1,inactive
10,COc1ccc2[nH]c3nc(SCC(=O)Nc4cccc(NC(C)=O)c4)nnc3c2c1,"inconclusive: 21.3 µM [inhibitor, partial curve]"
11,Cc1ccccc1C(=O)Nc1cccc(NC(=O)c2cccnc2)c1,"inconclusive: 16.9 µM [inhibitor, partial curve]"
12,COC(=O)C(C)N1C(=O)S/C(=C\c2cc(C)n(-c3ccccn3)c2C)C1=O (stereo not given),active: 2.69 µM
13,Nn1c(SCc2ccccc2F)nnc1-c1cccnc1,"inconclusive: 23.9 µM [inhibitor, partial curve]"
14,CN1CCN(CCNC(=O)c2cnn(-c3ccc(Cl)cc3)c2C2CCN(C(=O)OC(C)(C)C)CC2)CC1,inactive
15,Cc1oc(-c2ccccc2Cl)nc1CSCC(=O)NC1CCCC1,"inconclusive: 16.9 µM [inhibitor, partial curve]"
16,Cc1ccc(NC(=O)NN2CCN(C)CC2)cc1C,inactive
17,O=C(NCc1cccnc1)C(=O)Nc1nc(C23CC4CC(CC(C4)C2)C3)cs1,"inconclusive: 33.8 µM [inhibitor, partial curve, poor fit]"
18,Cc1nc2nc(CNC(=O)c3cccc(F)c3)nn2c(C)c1CCC(=O)Nc1cccc(Cl)c1,inactive
19,Cc1nn(C(C)C(=O)Nc2ccccc2C(F)(F)F)c(=O)c2c1sc1ccccc12 (stereo not given),"inconclusive: 2.69 µM [inhibitor, full curve]"
20,Cc1ccc(NC(=O)c2ccc(NCCCN3CCOCC3)c([N+](=O)[O-])c2)cc1Cl,"inconclusive: 19 µM [inhibitor, partial curve, poor fit]"
21,O=C1N/C(=C\c2ccccc2)c2ccccc21,"inconclusive: 16.9 µM [inhibitor, partial curve]"
22,CCN(C(=O)[C@@H]1CCCN1C(=O)c1cccs1)c1nc2cc(Cl)ccc2s1,"inconclusive: 21.3 µM [inhibitor, partial curve]"
23,Cc1ccc(N(CC(C)C)S(=O)(=O)c2nnc(NC(=O)C(C)C)s2)cc1,inactive
24,COc1cc(C)ccc1OCC(=O)Nc1ccc2c(c1)OCO2,active: 7.57 µM
25,CCc1ccc(NC(=O)CCc2c(C)nn(-c3ccc(N4CCOCC4)nn3)c2C)cc1,"inconclusive: 26.9 µM [inhibitor, single point]"

row,Compound,Potency
1,Cc1oc2cc3oc(=O)c(CCC(=O)NC4CC4)c(C)c3cc2c1C,"inconclusive: 37.9 µM [inhibitor, partial curve, poor fit]"
2,O=C(NC(=S)N1CCc2ccccc21)c1ccco1,"inconclusive: 26.9 µM [inhibitor, partial curve, poor fit]"
3,COc1ccc(C(=O)C(=O)c2ccc(OCCO)cc2)cc1,"inconclusive: 19 µM [inhibitor, single point]"
4,CCCCn1c(N)c(N(C)C(=O)c2ccccc2Oc2ccccc2)c(=O)[nH]c1=O,inactive
5,Fc1ccc(Nc2nc3ccccc3n3cnnc23)c(F)c1,inactive
6,COc1ccc(OC)c(NC(=O)COc2ccc3c(c2)CCC3)c1,inactive
7,CSc1ncc2c(n1)-c1ccccc1N(Cc1ccccc1)S2(=O)=O,inactive
8,COc1cccc(NC(=O)c2c(F)cccc2F)c1,"inconclusive: 19 µM [inhibitor, partial curve]"
9,O=C(Nc1ccccc1)Nc1ccc(C(F)(F)F)cn1,"inconclusive: 7.57 µM [inhibitor, partial curve, poor fit]"
10,O=C(c1cc(F)ccc1F)C1CCCN(C(=O)CCc2cnccn2)C1 (stereo not given),inactive
11,CSc1nc(O)c(N=Nc2ccc(F)cc2F)c(=O)[nH]1,active: 0.849 µM
12,CC#C[C@@H](CC)c1ccc2ccn(C)c2c1,"inconclusive: 8.49 µM [inhibitor, single point]"
13,COc1ccc(-c2nc3sc(CCNS(=O)(=O)c4ccccc4)c(C)n3n2)cc1,"inconclusive: 23.9 µM [inhibitor, partial curve, poor fit]"
14,O=C(Nc1nnc(Cc2c[nH]c3ccccc23)s1)c1ccc(Cl)cc1Cl,"inconclusive: 23.9 µM [inhibitor, partial curve, poor fit]"
15,O=C(O)CSc1ncnc2sc(-c3ccccc3)cc12,active: 13.5 µM
16,Cc1ccc(-c2ccc(OC(=O)c3ccc(=O)[nH]c3)c(C)c2)cc1,"inconclusive: 37.9 µM [inhibitor, partial curve, poor fit]"
17,O=C(Nc1ccc2c(c1)OCCO2)c1cccc(Cl)c1,active: 3.01 µM
18,CCCc1nnc(SCC(=O)Nc2ccc(OC)cc2)o1,inactive
19,CC(C)c1ccc(N(CC(=O)O)S(=O)(=O)c2ccc3[nH]c(=O)c(=O)[nH]c3c2)cc1,inactive
20,c1ccc(-c2ccc(-c3ccccn3)nn2)nc1,active: 1.35 µM
21,O=C(Nc1cccc2cccnc12)c1cccc(Cl)c1,active: 15.1 µM
22,CC(C)C[C@H](NC(=O)N1CC(=O)Nc2ccccc21)C(=O)N[C@@H](Cc1ccccc1)C(=O)O,inactive
23,N#C/C(=N\Nc1ccc(S(=O)(=O)N2CCCCCC2)cc1)C(N)=S,"inconclusive: 26.9 µM [inhibitor, single point]"
24,Cc1ccc(NCC(=O)N/N=C/c2cc(O)ccc2[N+](=O)[O-])cc1,"inconclusive: 23.9 µM [inhibitor, single point]"
25,CN(C)c1nc(N)nc(CSc2ncc(Cl)cc2Cl)n1,"inconclusive: 19 µM [inhibitor, single point]"

row,Compound,Potency
1,COC(=O)c1cccc(NC(=O)CSc2nnc(-c3ccco3)o2)c1,inactive
2,O=C(COC(=O)/C=C/c1ccccc1)Nc1cccnc1Cl,"inconclusive: 23.9 µM [inhibitor, partial curve, poor fit]"
3,Cc1ccccc1NC(=O)/C(C#N)=C/c1ccc(Cl)cc1Cl,inactive
4,Cc1nnc(NC(=O)CSc2ccc(-c3ccccn3)nn2)s1,"inconclusive: 37.9 µM [inhibitor, single point]"
5,Cc1ccc(-c2csc(NC(=O)c3ccco3)n2)cc1C,active: 8.49 µM
6,O=C(NCc1ccc(F)cc1)C(=O)NCC(c1ccc2c(c1)OCO2)N1CCOCC1 (stereo not given),inactive
7,COc1ccc(NC(=O)C2CCCN(S(=O)(=O)c3c(C)[nH]c(=O)[nH]c3=O)C2)c(OC)c1 (stereo not given),inactive
8,Cc1cccc(-c2nc3nc(C)cc(NC(C)c4ccccc4)n3n2)c1 (stereo not given),active: 16.9 µM
9,O=C(N1CCOCCOc2ccccc2OCCOCC1)C(F)(F)F,inactive
10,COc1cc(NS(=O)(=O)c2ccc(NC(=O)c3ccc(Cl)cc3Cl)cc2)nc(OC)n1,"inconclusive: 13.5 µM [inhibitor, partial curve]"
11,CCOc1cc(/C=C(/C#N)C(=O)Nc2ccc(O)cc2)cc(Br)c1O,"inconclusive: 21.3 µM [inhibitor, partial curve, poor fit]"
12,CC(C)CNC(=O)COC(=O)CNC(=O)c1cc(Cl)cc([N+](=O)[O-])c1,inactive
13,COC(=O)c1ccc(/C=C/C(=O)c2ccc(OC)c(OC)c2)cc1,"inconclusive: 23.9 µM [inhibitor, single point]"
14,Cc1ccc2nc(-c3ccc(NC(=O)COc4ccc(Br)cc4Br)cc3)sc2c1,active: 2.13 µM
15,CNC(=O)c1c(NC(=O)/C=C/c2ccccc2)sc2c1CCC2,"inconclusive: 13.5 µM [inhibitor, partial curve]"
16,O=C(c1cn(-c2ccccc2)nc1-c1cccs1)N1CCN(c2ccc(F)cc2)CC1,active: 13.5 µM
17,c1ccc(-c2csc(Nc3ccc4c(c3)OCCO4)n2)cc1,active: 0.536 µM
18,Cc1ccc2oc(-c3ccc(C)c(NC(=O)c4ccc(-c5ccccc5[N+](=O)[O-])o4)c3)nc2c1,active: 10.7 µM
19,COCC(=O)Nc1c(C(=O)Nc2ccc(C)cc2)oc2ccccc12,inactive
20,COC(=O)c1ccc2nc(C)cc(Nc3cccc(Cl)c3C)c2c1,inactive
21,CSc1ccccc1-c1nc(-c2ccncc2)no1,"inconclusive: 8.49 µM [inhibitor, partial curve, poor fit]"
22,CC(C)(C)c1ccc(C(=O)NCC(=O)N2CCCCCC2)cc1,"inconclusive: 21.3 µM [inhibitor, partial curve, poor fit]"
23,COc1ccc(/C=C/C(=O)OC(C)CN2CCCCC2)cc1 (stereo not given),inactive
24,Cc1ccc(NS(=O)(=O)c2cccc(C(=O)NCC(c3ccc(F)cc3)N3CCOCC3)c2)cc1 (stereo not given),inactive
25,O=C(Cc1ccccc1)Nc1ccc(N2CCOCC2)cc1,"inconclusive: 37.9 µM [inhibitor, single point]"
